The full ranking holds about 33,000 sequences; the median of “E-score (-0.5 to 0.5)” is about -0.01, and the highest 2% start at about 0.26. Some of the results follow.
What follows are sequences tested against Ste12 (UniProt P13574) (assay: PBM E-score (8-mer binding enrichment) (E-score (-0.5 to 0.5)); higher = stronger / more preferred TF binding; most listed sequences are background and not binding sites). Details: protein concentration: 200 nM; construct: GST-DNA-binding domain.
Summary of the method: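 Universal all-10-mer Agilent arrays, double-stranded by primer extension on fresh or once-stripped slides, were probed with about 100-200 nM GST-tagged yeast transcription factors made by PURExpress. Fluorescent anti-GST detected bound protein, and masliner normalised the scans. E-scores from the Universal PBM Analysis Suite were given to each ungapped eight-base word pooled with its reverse complement.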

| Sequence | PBM E-score |
| --- | --- |
| CAAGTCAG | -0.112 |
| AACTTAAG | 0.0435 |
| AGGGAAAG | 0.0388 |
| CGGTGGAA | -0.0833 |
| CTTGGATC | -0.112 |
| ACGCAACT | 0.0274 |
| GAATATCC | -0.0779 |
| AGACGACT | -0.13 |
| GGATATCC | -0.0826 |
| CGGAACTA | 0.0915 |
| ATTGCTAA | 0.0939 |
| CACATTAG | -0.116 |
| AAGCGCAA | -0.0268 |
| AGACCAGA | 0.00564 |
| GTAGCTAC | -0.201 |
| CCGCCTAG | -0.0107 |
| AATGGTCC | -0.0695 |
| AGCAGTAG | -0.168 |
| ATTCCCTG | 0.0875 |
| CGCCTGAC | 0.0268 |
| GTCGAGCA | -0.222 |
| GATCCGCC | -0.0897 |
| ACTGTGGA | -0.123 |
| AGGGAGGA | -0.192 |
| GCGGATAC | 0.0575 |

| Sequence | PBM E-score |
| --- | --- |
| ATTGGTCC | 0.0259 |
| CACCAAGA | -0.103 |
| ATGGCGGA | -0.162 |
| CGTGCGCC | 0.073 |
| ATGTGCGA | 0.0368 |
| CACGCTCA | 0.0152 |
| AACGTTGG | 0.038 |
| AGGAGACT | -0.215 |
| ATAAGTCG | -0.0266 |
| AACCCTCC | -0.0183 |
| AGTGGCAA | -0.108 |
| GCCCAAAA | 0.121 |
| ATTTTTTG | 0.222 |
| GGGTAGGA | -0.227 |
| CTAAAGGA | -0.0733 |
| CCGAACGG | -0.0282 |
| CTCCACAA | 0.00925 |
| GCAAGCGA | 0.0255 |
| CGACAACC | -0.103 |
| AAGGGATA | 0.0881 |
| AACCAAGA | 0.165 |
| AATTTCTC | 0.0129 |
| TCCACCAA | -0.0785 |
| ATGGACTG | -0.212 |
| CTGAAAGC | 0.085 |

| Sequence | PBM E-score |
| --- | --- |
| CAGCTCGC | 0.0242 |
| AGTTGAAT | 0.226 |
| AAAGAGCT | -0.0369 |
| GGGGGTAC | -0.16 |
| AGCAAAGA | 0.0373 |
| AGCTATAG | -0.0842 |
| CGACTACA | -0.0813 |
| GAGTACTA | -0.196 |
| GAAATTTC | 0.0669 |
| AGGACCGC | -0.00188 |
| AGTTTCCA | 0.212 |
| ATTGCTGG | -0.146 |
| ACGTCTTG | -0.103 |
| TATCCACA | -0.0717 |
| CTATGGAC | -0.0398 |
| AATAATCC | 0.0844 |
| GTACCTAA | -0.0961 |
| ACCCGCCC | 0.361 |
| AACTCTGG | -0.0542 |
| CGTAGCTA | -0.295 |
| AACCCTGC | -0.123 |
| ACAATCCT | -0.0366 |
| CACATATG | -0.0469 |
| ATGTGTCA | 0.119 |
| CTGGCTAC | -0.123 |

| Sequence | PBM E-score |
| --- | --- |
| CGGGCTGC | -0.0993 |
| GATTTATA | 0.182 |
| CAGTCATG | -0.0234 |
| CAATACTA | -0.117 |
| CATTCTAC | 0.00037 |
| AACGACTT | -0.22 |
| CTTAGAAG | -0.0859 |
| AGCGTATG | -0.0619 |
| GACTCCTA | -0.0887 |
| AGCATCGC | -0.0384 |
| AAACGTTG | 0.111 |
| CCCGGGTA | 0.0597 |
| CCCCACAG | -0.148 |
| GATCTACC | -0.0505 |
| ACGTCGTG | -0.0823 |
| GTAGGCAA | -0.144 |
| AGAGGCTA | -0.0372 |
| GTTCCTCA | -0.0775 |
| AGCAATAG | -0.204 |
| AACATACA | 0.0906 |
| CGGCTTAA | 0.225 |
| ACCGTGCG | -0.102 |
| CCCAAAAC | 0.253 |
| AGCCCCTC | -0.00471 |
| CATTATGA | -0.0123 |

| Sequence | PBM E-score |
| --- | --- |
| CACTAGTG | -0.00848 |
| GTCGTTAA | -0.0115 |
| CACGGTAG | -0.184 |
| ACCACTTG | 0.0214 |
| CAAGGATA | -0.0606 |
| CCAGCTTC | -0.109 |
| CGCACTAC | -0.175 |
| CCCCTACG | -0.263 |
| GGCGAAGA | -0.173 |
| CTGAATAA | 0.0613 |
| TAATTATA | 0.251 |
| AGACGGGG | -0.0599 |
| AGTGGATA | 0.0171 |
| TCCGATAA | -0.0449 |
| ACTATTGA | 0.128 |
| GAGTATGA | 0.169 |
| AGATTCGG | 0.00429 |
| AGCACATC | -0.0218 |
| CGGGGGAG | -0.184 |
| TGCACTAA | -0.0735 |
| ATCGCTTA | -0.147 |
| GACGGATA | -0.0128 |
| ATATAGTA | 0.123 |
| GCCGCGAA | 0.0341 |
| CTAATAGA | 0.0822 |

| Sequence | PBM E-score |
| --- | --- |
| GACGAAGC | 0.0172 |
| GGAACGAC | -0.153 |
| CATCCCCC | -0.0111 |
| CGTCCGAC | -0.149 |
| TCTGCGCA | -0.137 |
| CTCATAAG | 0.0456 |
| AGAGGTAC | -0.167 |
| ACAAGACC | -0.192 |
| AAGTAGAA | 0.072 |
| ACCAGGAG | -0.248 |
| CGAAATAG | -0.097 |
| CTCGAAGC | -0.273 |
| GTCGTGGA | -0.337 |
| AATTCCTC | -0.145 |
| CCTATATC | -0.0237 |
| ACATGAGT | -0.0781 |
| ACTTGAGC | -0.267 |
| GATTTTAC | 0.0343 |
| CAGTACTA | 0.00921 |
| CCGTGTAC | -0.0839 |
| ATAACCCC | 0.0553 |
| AATAGACT | 0.0457 |
| ACTCTCCC | -0.0353 |
| ACCAAGGA | 0.0667 |
| ATCGGGGC | 0.0313 |

| Sequence | PBM E-score |
| --- | --- |
| AAGCGCGA | 0.0291 |
| GACATAGC | -0.101 |
| ATCGCACG | -0.0146 |
| GAGCGATC | -0.105 |
| TCGGCAAA | 0.0674 |
| CTTCCATC | 0.142 |
| GATCTTGC | -0.0499 |
| CGACCAGA | 0.0249 |
| ATCAGTTG | 0.0486 |
| AAAATGTG | 0.112 |
| CCGTGATA | -0.0518 |
| GAGTGGAC | -0.193 |
| GCGATGAC | 0.0974 |
| TCACCCCA | 0.233 |
| AATATCCA | 0.0334 |
| AGTATGAC | 0.0943 |
| AATCCACA | 0.0762 |
| CCGTCAAC | -0.136 |
| AGGTTGGG | -0.0348 |
| CACCCCAG | -0.0424 |
| AACCCACG | 0.00698 |
| GTCGTGTA | 0.011 |
